The other results are listed elsewhere or left out.
Biological target: T1, OsWOX13 (Oryza sativa, UniProt Q5QMM3 1-267)
T1 sequence: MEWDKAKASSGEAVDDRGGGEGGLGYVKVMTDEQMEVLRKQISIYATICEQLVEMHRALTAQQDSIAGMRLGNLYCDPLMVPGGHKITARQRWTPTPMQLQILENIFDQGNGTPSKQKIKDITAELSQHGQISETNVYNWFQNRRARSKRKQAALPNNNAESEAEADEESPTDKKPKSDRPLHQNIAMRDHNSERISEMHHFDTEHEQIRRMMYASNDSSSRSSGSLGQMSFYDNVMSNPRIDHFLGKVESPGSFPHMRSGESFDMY
Assay: protein-binding microarray (RPBM); PBS, 2% BSA, 51.3 ng/ul salmon testes DNA, 50 uM zinc acetate, 200 nM TF, 25 C, 1 h; high values mean tight binding
Details: protein: recombinant; tags: N-terminal polyhistidine and DsRed monomer fusion (pET32a); label: CyDye5-dUTP incorporated in the synthesized complementary strand; 3' TTTTT single-stranded linker to array surface; dsDNA, one strand shown
In short: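 The binding signal for each feature is its fluorescence intensity in arbitrary units. An Axon 4000B scanner was used to read a custom Agilent array that had been made double-stranded with Cy5-dUTP primer extension, blocked with 2% BSA, incubated at 25 °C for 1 h with 200 nM protein in PBS, 2% BSA, salmon testes DNA and 50 µM zinc acetate, and washed. The protein was an N-terminal polyhistidine–DsRed transcription factor fusion from E. coli BL21-CodonPlus, purified on Ni–NTA.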

Row | Sequence | binding signal
1 | ATTGGATAAATTGATTATCATCAATTTTGGTTGAATATGACGGAGTCACCTAGTGCAG | 28100 fluorescence intensity (a.u.)
2 | ATTAATCACGCGTTAATGGACCGCTCCGTTTTCCGTGCGACGGAGTCACCTAGTGCAG | 18700 fluorescence intensity (a.u.)
3 | TCGAGCAGATCAATCAACCAACGGGTCGAGAGGATTTAGTCGGAGTCACCTAGTGCAG | 4870 fluorescence intensity (a.u.)
4 | AAAATAAGTAACTGCCAATTATTAACAGAGCGGCGATCATCGGAGTCACCTAGTGCAG | 10800 fluorescence intensity (a.u.)
5 | ACAAACTAAAATTATTTAACATCGAAGGTAGTCTTTGGCACGGAGTCACCTAGTGCAG | 6310 fluorescence intensity (a.u.)
6 | TATAAATTTAGTTAAATATATATAAAGAAGTTTGACTTATCGGAGTCACCTAGTGCAG | 9160 fluorescence intensity (a.u.)
7 | TATTAATCAATTAATGTTCCATGGAGATACTGAGCTCAGCCGGAGTCACCTAGTGCAG | 18600 fluorescence intensity (a.u.)
8 | CAGTTGATTGGCCGACGTTATGATATGGTAGCTGAATTAGCGGAGTCACCTAGTGCAG | 44100 fluorescence intensity (a.u.)
9 | ATAAACGTGTTAATTTGCTAATGAACACCGCGCCGATTAACGGAGTCACCTAGTGCAG | 5730 fluorescence intensity (a.u.)
10 | CTTCAAATCAAGAGATTTAATTTAAGTCGATCTCAATCCCCGGAGTCACCTAGTGCAG | 18900 fluorescence intensity (a.u.)
11 | GCGCCATCCCTAATTGTCAGTTTTCCCATTTTGAGCTTCCCGGAGTCACCTAGTGCAG | 8550 fluorescence intensity (a.u.)
12 | TTGAATTTCAAATTGAATTTACTACAAACTAGGAAAATATCGGAGTCACCTAGTGCAG | 5200 fluorescence intensity (a.u.)
13 | GGTATCTGCATTAATTAGTAATCACTGCTATGTACTAACTCGGAGTCACCTAGTGCAG | 16100 fluorescence intensity (a.u.)
14 | AAAATTTTGGTTGAAATTGAAACAGTGTGATGAAAAGGTTCGGAGTCACCTAGTGCAG | 4000 fluorescence intensity (a.u.)
15 | AGCCTAATTAATTCGTCATTAGCATATGTGGGTTATTATACGGAGTCACCTAGTGCAG | 27800 fluorescence intensity (a.u.)
16 | AATCCAATTGATAATCAACTATATATATATATTTGCATCTCGGAGTCACCTAGTGCAG | 23500 fluorescence intensity (a.u.)
17 | TGCCTTTTAAATTAGACACAGTGAGACCAAGCAGTAGTACCGGAGTCACCTAGTGCAG | 4250 fluorescence intensity (a.u.)
18 | TGAAATTGAGGGGTACGATATATGCGTGTGTGTGGCAACGCGGAGTCACCTAGTGCAG | 5800 fluorescence intensity (a.u.)
19 | ACTTTAACAATGCCAATTTATTTTGGTACTATAACTGATTCGGAGTCACCTAGTGCAG | 10600 fluorescence intensity (a.u.)
20 | CATACTAATTGAATAGAACGAATCGTCCAGCTAAATTGCTCGGAGTCACCTAGTGCAG | 37200 fluorescence intensity (a.u.)
21 | GACACGTATGATTTGTGTGGTAGTACATAGCACGCACGCACGGAGTCACCTAGTGCAG | 4130 fluorescence intensity (a.u.)

Row | Sequence | binding signal
22 | AGCTAATCAATCGCTTACGTCCCACCGCGACTCGTGTGAACGGAGTCACCTAGTGCAG | 16400 fluorescence intensity (a.u.)
23 | GGACAGAGAATTTGAGCTAATTGGACATGATTTTGGCCAACGGAGTCACCTAGTGCAG | 8150 fluorescence intensity (a.u.)
24 | CACCATTCATTCAATCTAGTTATTATCTGCTGGGTACTCTCGGAGTCACCTAGTGCAG | 11800 fluorescence intensity (a.u.)
25 | ACCCTTGATTTACTTGATAATTTGTTATATGTCCCCATCCCGGAGTCACCTAGTGCAG | 49800 fluorescence intensity (a.u.)
26 | GCTATCTTTAATCTATTGGTTAATTATTGGCCATCAGTTCCGGAGTCACCTAGTGCAG | 5840 fluorescence intensity (a.u.)
27 | CACCATAGATTAAATTAACAATAATATAATCACCACCAGACGGAGTCACCTAGTGCAG | 18700 fluorescence intensity (a.u.)
28 | GTTAATTTAATTGAAATTTAAATTTAAATCAATCTGCATTCGGAGTCACCTAGTGCAG | 57600 fluorescence intensity (a.u.)
29 | CCATCATCAATTTTAAAGTTTAAACACCATGTTTAGGGTTCGGAGTCACCTAGTGCAG | 3900 fluorescence intensity (a.u.)
30 | CTTAATTATCGTACCAAGGCTGTTTATTTGTTTTCTAAATCGGAGTCACCTAGTGCAG | 21800 fluorescence intensity (a.u.)
31 | TACTAGATTACAATATTTTAGACAGATGCAGTAACTTCCCCGGAGTCACCTAGTGCAG | 14300 fluorescence intensity (a.u.)
32 | GTGCGTGATGATTAAGGCATGAAAATCTTAAACAACTATTCGGAGTCACCTAGTGCAG | 3200 fluorescence intensity (a.u.)
33 | TTTAATAAAACTAATTTGACGTTGTAAATATTAGTACTATCGGAGTCACCTAGTGCAG | 4620 fluorescence intensity (a.u.)
34 | CATTAAGAGTGATTGAATCTTGTTCTAAACATTAACTTTTCGGAGTCACCTAGTGCAG | 26300 fluorescence intensity (a.u.)
35 | TATATATATATATATATATATATCTTGAAAACGTGATGTGCGGAGTCACCTAGTGCAG | 6240 fluorescence intensity (a.u.)
36 | AGATGACGAGTTGATGAGACCGTCATGTTTGACCTGGTATCGGAGTCACCTAGTGCAG | 14000 fluorescence intensity (a.u.)
37 | GCCGTCAAGATCATGATTGGGAGGACGTCGATTAATAAATCGGAGTCACCTAGTGCAG | 15300 fluorescence intensity (a.u.)
38 | CATGTTAATTTTCTACTACAGCTTAGGTTGATGCTATGTTCGGAGTCACCTAGTGCAG | 9040 fluorescence intensity (a.u.)
39 | TGCTTCAATCATCATTGCATAAATGTGCATTACAGTGAATCGGAGTCACCTAGTGCAG | 19400 fluorescence intensity (a.u.)
40 | AAAATTAGCTTCAATCAAGGTAACCAAACACGCCAGAGCTCGGAGTCACCTAGTGCAG | 47100 fluorescence intensity (a.u.)
41 | TACTAAATTGACTATGGACGATTTAGAGCTCGTAGTTGGCCGGAGTCACCTAGTGCAG | 53600 fluorescence intensity (a.u.)
42 | TGTCTAATTATAGAACTTCTTATATTTTAAGACGAATGGACGGAGTCACCTAGTGCAG | 14300 fluorescence intensity (a.u.)

From article PMC7819943, “Rice protein-binding microarrays: a tool to detect cis-acting elements near promoter regions in rice”
